Data: the supplement of paper PMC4466236
In all, about 33,000 sequences were measured (“E-score (dimensionless, -0.5 to 0.5)”: median about -0.058, highest 2% from about 0.35 on). The list shows a part of the results.

What follows are sequences tested on MvaT (assay: PBM 8-mer E-score (mean of HK and ME arrays) (E-score (dimensionless, -0.5 to 0.5)); higher = stronger relative binding preference; most listed sequences are background and not binding sites).
In short: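 Full-length P. aeruginosa MvaT, with glutathione S-transferase fused to its N-terminus (cloned into pTH6838 by isothermal assembly), was tested by protein binding microarray using a previously described protocol. Two universal double-stranded 60-mer arrays (ME and HK) were used, each with a constant 25-mer primer region and a variable 35-mer region covering all 8-mers. The rank-based 8-mer E-score (-0.5 to 0.5) is the mean of the two arrays, parsed with a custom Python script.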
In the case of CAGTTCGG, the “PBM 8-mer E-score” value is reported as -0.119.
With ATGTGTCG the “PBM 8-mer E-score” value was 0.0669.
For CACTTACA, the “PBM 8-mer E-score” value was 0.212.
CCCTATCC was tested, and the “PBM 8-mer E-score” value was -0.293.
For AAAGAAAT, the “PBM 8-mer E-score” value was 0.164.
For GCTGTCGA, the “PBM 8-mer E-score” value was -0.0706.
In the case of AAAAAGCG, the “PBM 8-mer E-score” value is reported as 0.183.
ACCGACAA was tested, and the “PBM 8-mer E-score” value was 0.062.
GGGGCTCA was tested, and the “PBM 8-mer E-score” value was -0.347.
With AATTTCAT the “PBM 8-mer E-score” value was 0.264.
In the case of CGGGACCA, the “PBM 8-mer E-score” value is reported as -0.154.
In the case of ATTCCCCG, the “PBM 8-mer E-score” value is reported as -0.0407.
With CATTTGAG the “PBM 8-mer E-score” value was 0.117.
CACTGCTG was tested, and the “PBM 8-mer E-score” value was -0.115.
CTGAGTGA was tested, and the “PBM 8-mer E-score” value was -0.0531.
For AGTAGATC, the “PBM 8-mer E-score” value was -0.194.
With CAACAGTA the “PBM 8-mer E-score” value was 0.11.
For AATATTCA, the “PBM 8-mer E-score” value was 0.312.
For AAGTCCCA, the “PBM 8-mer E-score” value was -0.0242.
With AGACTTTC the “PBM 8-mer E-score” value was 0.0416.
For CTATCTCA, the “PBM 8-mer E-score” value was -0.0182.
In the case of AAACCCCC, the “PBM 8-mer E-score” value is reported as -0.301.
For ACATAATC, the “PBM 8-mer E-score” value was 0.222.
For AGAGGAAT, the “PBM 8-mer E-score” value was 0.0381.
For GATGCGTA, the “PBM 8-mer E-score” value was -0.153.
With CAGTTCTC the “PBM 8-mer E-score” value was -0.151.
With CAAGCTTG the “PBM 8-mer E-score” value was -0.234.
With ATGCCCTG the “PBM 8-mer E-score” value was -0.132.
With ACCTTCTG the “PBM 8-mer E-score” value was -0.062.
For GAGTTCCC, the “PBM 8-mer E-score” value was -0.16.
For AGAGTATA, the “PBM 8-mer E-score” value was 0.306.
For ATGAGCCG, the “PBM 8-mer E-score” value was -0.153.
CGCCCGTC was tested, and the “PBM 8-mer E-score” value was -0.284.
In the case of AATACGGG, the “PBM 8-mer E-score” value is reported as -0.0239.
For ACAGCGCC, the “PBM 8-mer E-score” value was -0.206.
With AAGACCTA the “PBM 8-mer E-score” value was -0.0822.
With ACAGGTCA the “PBM 8-mer E-score” value was -0.207.
With CTCGGGTA the “PBM 8-mer E-score” value was -0.000585.
For GCGCCGCC, the “PBM 8-mer E-score” value was -0.337.
For ATTCTACG, the “PBM 8-mer E-score” value was 0.00631.
For GTAAGGTA, the “PBM 8-mer E-score” value was 0.0644.
For GTGTACTA, the “PBM 8-mer E-score” value was 0.0241.
GTCGGAAA was tested, and the “PBM 8-mer E-score” value was 0.0251.
For CGCGCTCC, the “PBM 8-mer E-score” value was -0.246.
For AACTCCGG, the “PBM 8-mer E-score” value was -0.146.
For GAGTGCTA, the “PBM 8-mer E-score” value was 0.0515.
With ATCTATAG the “PBM 8-mer E-score” value was 0.146.
With CTGATCCA the “PBM 8-mer E-score” value was -0.212.
ACATCAAG was tested, and the “PBM 8-mer E-score” value was -0.0717.
For ATCGCTAC, the “PBM 8-mer E-score” value was -0.16.
With ACGGTATG the “PBM 8-mer E-score” value was -0.214.
AGTTACCG was tested, and the “PBM 8-mer E-score” value was 0.0173.
For TGAACCAA, the “PBM 8-mer E-score” value was -0.0692.
In the case of AAATCAAA, the “PBM 8-mer E-score” value is reported as 0.209.
In the case of AGTTTGTC, the “PBM 8-mer E-score” value is reported as 0.0701.
With CATATTCG the “PBM 8-mer E-score” value was 0.173.
With GTAGACAA the “PBM 8-mer E-score” value was -0.118.
For GCGTATAA, the “PBM 8-mer E-score” value was 0.201.
TCGAACAA was tested, and the “PBM 8-mer E-score” value was 0.0746.
In the case of CGTGGGAC, the “PBM 8-mer E-score” value is reported as -0.175.
For CTGGCTCA, the “PBM 8-mer E-score” value was -0.136.
In the case of AATATAGG, the “PBM 8-mer E-score” value is reported as 0.288.
For CTCCACGA, the “PBM 8-mer E-score” value was -0.0888.
For GAATTGAC, the “PBM 8-mer E-score” value was 0.0491.
ATGCCTTG was tested, and the “PBM 8-mer E-score” value was -0.0691.
For CCAGGGCG, the “PBM 8-mer E-score” value was -0.142.
In the case of ACATCTGG, the “PBM 8-mer E-score” value is reported as -0.118.
With GAAGGAGC the “PBM 8-mer E-score” value was -0.315.
With GCCCCACA the “PBM 8-mer E-score” value was -0.169.
AAAGAGCG was tested, and the “PBM 8-mer E-score” value was -0.0407.
For AACAAGCC, the “PBM 8-mer E-score” value was 0.0697.
GCTATTCC was tested, and the “PBM 8-mer E-score” value was 0.0729.
For CGTCCTTA, the “PBM 8-mer E-score” value was -0.0548.
With GCGGGTCC the “PBM 8-mer E-score” value was -0.104.
GACAATAA was tested, and the “PBM 8-mer E-score” value was 0.28.
With CTAGTAAC the “PBM 8-mer E-score” value was 0.212.
With CGACACTC the “PBM 8-mer E-score” value was -0.0968.
For ATCCTCCG, the “PBM 8-mer E-score” value was -0.29.
With ATCGTCGC the “PBM 8-mer E-score” value was -0.131.
With CAGCGCGG the “PBM 8-mer E-score” value was -0.245.
CCTACGAA was tested, and the “PBM 8-mer E-score” value was -0.128.
GAAGGTCA was tested, and the “PBM 8-mer E-score” value was -0.173.
With CCGTTCAC the “PBM 8-mer E-score” value was -0.213.
CGACGGAG was tested, and the “PBM 8-mer E-score” value was -0.115.
In the case of ATTGATGG, the “PBM 8-mer E-score” value is reported as -0.0185.
For CACCGGTG, the “PBM 8-mer E-score” value was -0.153.
For CGCATCGC, the “PBM 8-mer E-score” value was -0.172.
In the case of GAATCTCC, the “PBM 8-mer E-score” value is reported as -0.16.
For CCCTTCTC, the “PBM 8-mer E-score” value was -0.102.
In the case of CTTGTGTA, the “PBM 8-mer E-score” value is reported as -0.0771.
In the case of CCGAAAGA, the “PBM 8-mer E-score” value is reported as -0.02.
ACCTCCTC was tested, and the “PBM 8-mer E-score” value was -0.275.
With ATTCTTGG the “PBM 8-mer E-score” value was -0.105.
ATTAAACC was tested, and the “PBM 8-mer E-score” value was 0.249.
For CGGACGAA, the “PBM 8-mer E-score” value was -0.178.
In the case of ACGGGCCC, the “PBM 8-mer E-score” value is reported as -0.183.
In the case of GGACTTGA, the “PBM 8-mer E-score” value is reported as 0.00781.
With GGCCCACC the “PBM 8-mer E-score” value was -0.28.
With AGACCCCT the “PBM 8-mer E-score” value was -0.228.
With ATCAATGA the “PBM 8-mer E-score” value was 0.163.
With GAGGGGAA the “PBM 8-mer E-score” value was -0.241.
In the case of ACGTACTA, the “PBM 8-mer E-score” value is reported as 0.176.
With CGATTCTC the “PBM 8-mer E-score” value was -0.121.
In the case of GCGCTCCA, the “PBM 8-mer E-score” value is reported as -0.228.
For GACCCGCA, the “PBM 8-mer E-score” value was -0.00755.
CCTACTCC was tested, and the “PBM 8-mer E-score” value was -0.175.
For AACATCCG, the “PBM 8-mer E-score” value was 0.129.
For GTTGCTTA, the “PBM 8-mer E-score” value was 0.0313.
For AACTTTGC, the “PBM 8-mer E-score” value was 0.294.
CGAGTTTA was tested, and the “PBM 8-mer E-score” value was 0.203.
With CCACTTTA the “PBM 8-mer E-score” value was 0.00646.
With CCAAATTA the “PBM 8-mer E-score” value was 0.228.
AAACCGAA was tested, and the “PBM 8-mer E-score” value was 0.174.
CCCTAACG was tested, and the “PBM 8-mer E-score” value was -0.235.
For GCGTGTTA, the “PBM 8-mer E-score” value was 0.117.
CAATGACC was tested, and the “PBM 8-mer E-score” value was -0.149.
For GCGTGATA, the “PBM 8-mer E-score” value was 0.133.
CACTAAGG was tested, and the “PBM 8-mer E-score” value was -0.0742.
ACACATAT was tested, and the “PBM 8-mer E-score” value was 0.344.
For CTGAGGTA, the “PBM 8-mer E-score” value was -0.165.
ACTTCATA was tested, and the “PBM 8-mer E-score” value was 0.164.
In the case of ACAGTGCA, the “PBM 8-mer E-score” value is reported as -0.0545.
In the case of CACGGATA, the “PBM 8-mer E-score” value is reported as 0.0195.
AAAGTGCC was tested, and the “PBM 8-mer E-score” value was -0.0197.
For CATTGTTC, the “PBM 8-mer E-score” value was 0.143.
GCTATTGA was tested, and the “PBM 8-mer E-score” value was 0.0714.
With AATAGCCG the “PBM 8-mer E-score” value was -0.00324.
ACGGTAGA was tested, and the “PBM 8-mer E-score” value was -0.116.
For AGACAACG, the “PBM 8-mer E-score” value was -0.133.
CGGATGAG was tested, and the “PBM 8-mer E-score” value was -0.197.
For AAAAGAGA, the “PBM 8-mer E-score” value was 0.103.
For AATTATAC, the “PBM 8-mer E-score” value was 0.342.
ACCCATCG was tested, and the “PBM 8-mer E-score” value was -0.107.
With CCTACACA the “PBM 8-mer E-score” value was -0.133.
ATGCCGGG was tested, and the “PBM 8-mer E-score” value was -0.178.
In the case of TCAGCTGA, the “PBM 8-mer E-score” value is reported as 0.0734.
In the case of ACTTTGCG, the “PBM 8-mer E-score” value is reported as 0.206.
In the case of ATGAGCAG, the “PBM 8-mer E-score” value is reported as -0.136.
In the case of ACCATCCG, the “PBM 8-mer E-score” value is reported as -0.225.
CCCAACCG was tested, and the “PBM 8-mer E-score” value was 0.0334.
With AGGATTGG the “PBM 8-mer E-score” value was -0.158.
With AACCGCTC the “PBM 8-mer E-score” value was -0.22.
In the case of AGAGATCG, the “PBM 8-mer E-score” value is reported as -0.116.
In the case of AGAAGCAA, the “PBM 8-mer E-score” value is reported as 0.00903.
With CACAAGTA the “PBM 8-mer E-score” value was 0.214.
In the case of AATCCACT, the “PBM 8-mer E-score” value is reported as -0.0779.
GCCTCGCA was tested, and the “PBM 8-mer E-score” value was -0.204.
With CATGTAAG the “PBM 8-mer E-score” value was 0.0769.
For CTAAGGCC, the “PBM 8-mer E-score” value was -0.149.
ACGTGTCT was tested, and the “PBM 8-mer E-score” value was 0.0166.
CCGAGGAA was tested, and the “PBM 8-mer E-score” value was -0.143.
ACTGCAAG was tested, and the “PBM 8-mer E-score” value was -0.0835.
CTGCCAGC was tested, and the “PBM 8-mer E-score” value was -0.251.
In the case of CCAGAGTA, the “PBM 8-mer E-score” value is reported as -0.115.
For GGAGAGTA, the “PBM 8-mer E-score” value was -0.0478.
In the case of CACTTATA, the “PBM 8-mer E-score” value is reported as 0.326.
For TCTTAGAA, the “PBM 8-mer E-score” value was 0.168.
ACCATCGC was tested, and the “PBM 8-mer E-score” value was -0.242.
ACTTTTGA was tested, and the “PBM 8-mer E-score” value was 0.134.
For CGACTTCA, the “PBM 8-mer E-score” value was -0.13.
With ACACACTG the “PBM 8-mer E-score” value was -0.146.
ACAATACG was tested, and the “PBM 8-mer E-score” value was 0.0961.
In the case of GCCTTTAC, the “PBM 8-mer E-score” value is reported as -0.0615.
AATACACT was tested, and the “PBM 8-mer E-score” value was 0.137.
GGTATTGA was tested, and the “PBM 8-mer E-score” value was 0.129.
For CTTGCCAC, the “PBM 8-mer E-score” value was -0.122.
With GTTGGGCA the “PBM 8-mer E-score” value was -0.0983.
In the case of AGTGCTTA, the “PBM 8-mer E-score” value is reported as 0.057.
AGTGGGCC was tested, and the “PBM 8-mer E-score” value was -0.226.
GGTCTATA was tested, and the “PBM 8-mer E-score” value was -0.039.
In the case of CTCCTATC, the “PBM 8-mer E-score” value is reported as -0.119.
ATGCGGGA was tested, and the “PBM 8-mer E-score” value was -0.182.
